Reference: paper PMC6937578
Results are given in words; binding and its absence hold for the method and conditions named. For some assays here: In cells and extracts the contact can be indirect. Some binding calls cover weakened binding; strength is not graded here. For some assays here: Tags and fused reporters may be left off the sequences shown.

Chains of the proteins cited; added tags and fusions are not shown. Lines headed by an entry give the natural chain unless they say otherwise; changes in a name come on top. Residues count along the entry.
UniProt P46109: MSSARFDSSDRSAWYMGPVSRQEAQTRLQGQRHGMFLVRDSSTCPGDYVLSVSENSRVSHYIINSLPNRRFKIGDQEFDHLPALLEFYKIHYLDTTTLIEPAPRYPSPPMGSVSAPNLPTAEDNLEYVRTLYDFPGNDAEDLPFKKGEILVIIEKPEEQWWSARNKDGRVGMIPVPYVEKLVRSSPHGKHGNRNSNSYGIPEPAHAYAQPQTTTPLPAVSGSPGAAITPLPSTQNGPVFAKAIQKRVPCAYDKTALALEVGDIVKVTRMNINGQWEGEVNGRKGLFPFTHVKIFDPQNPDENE
UniProt P62993: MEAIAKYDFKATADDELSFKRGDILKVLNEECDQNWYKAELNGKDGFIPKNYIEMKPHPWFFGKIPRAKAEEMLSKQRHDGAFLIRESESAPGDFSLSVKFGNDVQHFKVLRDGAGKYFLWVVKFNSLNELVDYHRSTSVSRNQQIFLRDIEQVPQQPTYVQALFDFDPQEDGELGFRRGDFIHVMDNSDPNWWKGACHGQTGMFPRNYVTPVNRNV
GST-Grb2-SH2: residues 60-152 of P62993
UniProt P27986, residues 3-79: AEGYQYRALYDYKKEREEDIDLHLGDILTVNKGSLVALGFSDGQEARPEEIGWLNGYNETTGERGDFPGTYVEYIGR

B1: Myc-BCAP (protein, UniProt Q6ZUJ8 1-805)
chain: MAASGVPRGCDILIVYSPDAEEWCQYLQTLFLSSRQVRSQKILTHRLGPEASFSAEDLSLFLSTRCVVVLLSAELVQHFHKPALLPLLQRAFHPPHRVVRLLCGVRDSEEFLDFFPDWAHWQELTCDDEPETYVAAVKKAISEDSGCDSVTDTEPEDEKVVSYSKQQNLPTVTSPGNLMVVQPDRIRCGAETTVYVIVRCKLDDRVATEAEFSPEDSPSVRMEAKVENEYTISVKAPNLSSGNVSLKIYSGDLVVCETVISYYTDMEEIGNLLSNAANPVEFMCQAFKIVPYNTETLDKLLTESLKNNIPASGLHLFGINQLEEEDMMTNQRDEELPTLLHFAAKYGLKNLTALLLTCPGALQAYSVANKHGHYPNTIAEKHGFRDLRQFIDEYVETVDMLKSHIKEELMHGEEADAVYESMAHLSTDLLMKCSLNPGCDEDLYESMAAFVPAATEDLYVEMLQASTSNPIPGDGFSRATKDSMIRKFLEGNSMGMTNLERDQCHLGQEEDVYHTVDDDEAFSVDLASRPPVPVPRPETTAPGAHQLPDNEPYIFKVFAEKSQERPGNFYVSSESIRKGPPVRPWRDRPQSSIYDPFAGMKTPGQRQLITLQEQVKLGIVNVDEAVLHFKEWQLNQKKRSESFRFQQENLKRLRDSITRRQREKQKSGKQTDLEITVPIRHSQHLPAKVEFGVYESGPRKSVIPPRTELRRGDWKTDSTSSTASSTSNRSSTRSLLSVSSGMEGDNEDNEVPEVTRSRSPGPPQVDGTPTMSLERPPRVPPRAASQRPPTRETFHPPPPVPPRGR
B2: dephosphorylated BCAP (FL) (protein, UniProt Q6ZUJ8 1-805)
chain: B1 chain
modifications: dephosphorylated with λ-protein phosphatase

Columns and labels:
FLAG-CRKL = FLAG-CRKL (UniProt P46109); assay: co-IP; HEK293T cells co-transfected, lysed 24 h after transfection (20 mM Tris, 150 mM NaCl, 0.5% Nonidet P-40, 1 mM EDTA, pH 8.0); immunoprecipitation with anti-FLAG M2 beads, blot for Myc
FLAG-Grb2 = FLAG-Grb2 (UniProt P62993); assay: as above
GST-Grb2-SH2 = GST-Grb2-SH2 (UniProt P62993); assay: pull-down; GST-tagged bait (50 or 100 μg) on 100 μl GSH beads in PBS; 50 μg of BCAP (FL) or dephosphorylated BCAP (FL) applied; three washes with PBS, elution with 10 mM reduced GSH, SDS-PAGE; both purified
GST-p85-SH3 = GST-p85-SH3 (UniProt P27986); assay: as above
GST-CRKL = GST-CRKL (UniProt P46109); assay: as above

Binder | binding (FLAG-CRKL) | binding (FLAG-Grb2) | binding (GST-Grb2-SH2) | binding (GST-p85-SH3) | binding (GST-CRKL)
B1 | no binding | binds | – | – | –
B2 | – | – | no binding | binds | no binding
